Laboratory results from PubChem BioAssay (NCI).
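Test compounds were applied to cells in 96-well plates for 48 hours at 5 doses. GI50 = concentration required for 50% inhibition of growth. TGI: concentration producing complete growth inhibition.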

What follows are molecules tested on NCI-H322M lung (assay: inhibition of tumour cell growth, NCI panel, 48 h).
With `Nn1c(-c2ccccc2)n[nH]c1=O` the TGI was over 100 µM. `C[C@]12CCC3c4ccc(O)cc4CCC3C1CC[C@@]2(O)CNC(=O)/C=C/c1ccc(O)c(O)c1` (stereo partly drawn) gave a GI50 of 8.14 µM and a TGI of 24.7 µM. Work on `CC(=O)/C=C/C1=C(C)CCCC1(C)CC(C)C` (stereo not drawn) yielded a TGI of over 100 µM. With `CCOC(=O)c1c(CN2CCCC2)n(-c2ccccc2)c2cc(Br)c(O)cc12` the TGI was 74.1 µM. `O=C(/C=C/c1ccc(O)cc1)c1ccc(O)cc1` was tested, and the TGI was over 100 µM. Work on `O=C1CCCCN1c1ccccc1C#C/C=C\C#Cc1ccccc1C(F)(F)F` yielded a GI50 of 6.9 µM and a TGI of over 50 µM. `O=CNc1ccc2c(c1)C(=O)c1ccccc1-2` was tested, and the TGI was over 100 µM. In the case of `O=C1CN(c2cccc(Cl)c2)C(=O)CN1CCN1CC(=O)N(c2cccc(Cl)c2)CC1=O`, the TGI is reported as over 100 µM. For `N[C@@H](CCC(=O)NCP(=O)(O)O)C(=O)O`, the TGI was over 100 µM. In the case of `NS(=O)(=O)c1nnc(NC(=O)Nc2ccc(Cl)c(Cl)c2)s1`, the TGI is reported as 53.9 µM. `COc1nncc2[nH]c(-c3ccccc3)cc12` gave a TGI of over 100 µM. Work on `C(=C(c1ccc(OC2CCCCO2)cc1)c1ccc(OC2CCCCO2)cc1)c1ccccc1` (stereo not drawn) yielded a TGI of 2.37 µM. With `Oc1[nH]c2ccccc2c1N=Nc1nc(-c2ccc(Br)cc2)cs1` the TGI was over 100 µM. With `CC(C)(C)c1cc2ccc(C(N)=O)cc2c(=O)[nH]1` the TGI was over 100 µM. `N#CC(C#N)=C/C=C(\Sc1nc2ccccc2s1)c1ccc(Cl)cc1` showed a GI50 of 18.8 µM and a TGI of 38.4 µM. `Nc1nc(-c2ccccc2)nc2oc(-c3cccs3)nc12` showed a TGI of over 100 µM. For `CC(=O)N1C(C(=O)NC2CCCCC2)CSC1c1ccccc1` (stereo not drawn), the TGI was over 100 µM. In the case of `Cc1cccc(C)c1NC(=O)CCCC(=O)C1/C(=N/NC(=O)CC#N)CCC/C1=N\NC(=O)CC#N` (stereo not drawn), the TGI is reported as over 100 µM. For `CCC(=O)NC(Nc1cc(C)on1)(C(F)(F)F)C(F)(F)F`, the TGI was over 100 µM. `COP(=O)(OC)C1=c2c(C)noc2=C2C=COC2C1=O` (stereo not drawn) was tested, and the TGI was over 100 µM. Work on `COc1cc(-c2ccc3cc(OC)c(OC)c(OC)c3c2)cc(OC)c1OC` yielded a GI50 of over 100 µM and a TGI of over 100 µM. In the case of `Nc1c(S(=O)(=O)O)cc2cc(S(=O)(=O)O)ccc2c1N=Nc1ccc(-c2ccc(N=Nc3c(N)c(S(=O)(=O)O)cc4cc(S(=O)(=O)O)ccc34)c(S(=O)(=O)O)c2)cc1`, the TGI is reported as over 100 µM. `CN1CC[C@@H](NC(=O)Nc2ccc(C#N)cc2)C[C@@H]1c1nc2ccccc2[nH]1` was tested, and the GI50 was over 100 µM and the TGI was over 100 µM. `COc1ccc(-n2c(C)nc3ccc(NC(=S)Nc4ccccc4)cc3c2=O)cc1` showed a TGI of over 100 µM. For `O=C(Nc1ccc(Oc2ccc(Nc3nc4ccccc4s3)cc2)cc1)Nc1ccc(Cl)c(C(F)(F)F)c1`, the GI50 was 1.9 µM and the TGI was 4.47 µM. In the case of `S=C(N/N=C(/c1ccccc1)c1ccccn1)N(Cc1ccccn1)Cc1ccccn1`, the TGI is reported as 2.15 µM. Work on `O=C(OCc1ccccc1)N1CCNCCN(C(=O)OCc2ccccc2)CCNCC1` yielded a TGI of 49.2 µM. Work on `CCN(Cc1ccc(F)cc1)c1cc(Cl)c(CO)c(Cl)c1` yielded a GI50 of 15.9 µM and a TGI of 30.6 µM. With `CC(C)=CCC[C@@H](C)c1c(O)c(O)c(C)c2nccnc12` the TGI was over 100 µM. In the case of `CC1=C(Cl)C=CP(=O)(Oc2ccccc2)C1` (stereo not drawn), the TGI is reported as over 100 µM. With `CC1(C)O[C@H]2OC(CO[Si](C)(C)C(C)(C)C)C(N=[N+]=[N-])[C@H]2O1` (stereo partly drawn) the TGI was 38.8 µM. Molecule `CC(=O)CC(OC(C)=O)C1=CCC2C(CC1C)OC(=O)C2C` (stereo not drawn) has a TGI of over 100 µM. For `CN(C)CC1CC/C(=C\c2ccc(O)cc2)C1=O` (stereo not drawn), the TGI was 30.6 µM. `COc1ccc(C2[C@@H](c3ccccc3)C(=O)N2c2cc(OC)c(OC)c(OC)c2)cc1F` (stereo partly drawn) was tested, and the GI50 was 0.0687 µM and the TGI was over 100 µM. `Cc1oc2c(cc(O)c3cc(O)ccc32)c2cccc1-2` showed a TGI of over 100 µM. `O=c1ccc2ccccc2cc1[O-].O=c1ccc2ccccc2cc1[O-].[O]=[U+2]=[O]` was tested, and the GI50 was 22.5 µM and the TGI was 64.1 µM. `CCCCCCCCCCn1cc[n+](C)c1` gave a GI50 of 16.8 µM and a TGI of over 96.4 µM. With `COC[C@H]1Cn2cc(-c3nc(Nc4ccnn4C)ncc3C)nc2C(=O)N1Cc1ccc(F)c(F)c1` the GI50 was 1.07 µM and the TGI was over 100 µM. `NC(=O)C(=Cn1c(=S)[nH]c2ccc([N+](=O)[O-])cc21)C(N)=O` gave a TGI of over 100 µM. `[N-]=[N+]=NC(c1ccccc1)(c1ccccc1)c1ccccc1` was tested, and the TGI was 35.2 µM. In the case of `COc1ccc(N=NC(=Nc2ccccc2)c2ccc(N(CCC#N)CCC#N)cc2)cc1`, the TGI is reported as over 100 µM. For `CCCCN(CCCC)C(=O)C(=O)C(C(=O)c1ccc(OC)cc1)c1ccc(OC)cc1` (stereo not drawn), the TGI was over 100 µM. Work on `O=S(=O)(c1ccccc1)c1cccc2c1NCCC2` yielded a TGI of over 100 µM. `Nn1c(Nc2ccc(S(=O)(=O)Nc3ncccn3)cc2)nnc(/C=C/c2c(O)ccc3ccccc23)c1=O` showed a TGI of over 100 µM. `CCc1c(OC(C)=O)c2c(NC3OCC(OC(C)=O)C(OC(C)=O)C3OC(C)=O)nc(SC)nc2oc1=O` (stereo not drawn) gave a TGI of over 100 µM. In the case of `CCN(CC)CCNC(=O)c1cc2cc(NC(=O)c3cc4cc([N+](=O)[O-])ccc4[nH]3)ccc2[nH]1`, the TGI is reported as 12.4 µM. Molecule `COc1cc(C2CC(C)(O)Oc3cc4c(cc32)OCO4)cc(OC)c1OC` (stereo not drawn) has a TGI of over 100 µM. In the case of `CC(=O)Nc1nc(NC(C)=O)c2[nH]c(CO)nc2n1`, the TGI is reported as over 100 µM. Work on `O=C(Cc1ccc(O)c(O)c1)NCc1c[nH]c2ccccc12` yielded a TGI of over 100 µM. Work on `COc1ccc(CN2C(=O)/C(=C\c3cc(OC)c(OC)c(OC)c3)c3ccccc32)cc1` yielded a GI50 of 0.773 µM and a TGI of 3.39 µM. With `Cc1ccnc(NS(=O)(=O)c2ccc(N=[N+]=[N-])cc2)n1` the TGI was over 100 µM.
